Results: the BET-seq Pho4 binding data (Le et al. 2018)
This is one part of the list. Values were computed here from the reads of four pooled replicates and scatter widely.

Molecular target: T1, Pho4 (S. cerevisiae) (UniProt P07270)
T1 sequence: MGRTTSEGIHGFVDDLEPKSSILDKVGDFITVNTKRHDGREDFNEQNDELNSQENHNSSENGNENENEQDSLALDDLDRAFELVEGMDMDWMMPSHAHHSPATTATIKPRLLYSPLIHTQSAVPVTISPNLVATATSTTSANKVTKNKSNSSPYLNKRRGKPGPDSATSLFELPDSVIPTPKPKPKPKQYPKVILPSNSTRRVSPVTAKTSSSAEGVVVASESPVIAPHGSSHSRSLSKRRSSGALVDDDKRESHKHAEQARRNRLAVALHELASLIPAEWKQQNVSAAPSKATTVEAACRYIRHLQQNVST
Test: relative binding free energy (BET-seq); higher = weaker binding
Details: reference: library average

| Sequence | relative binding free energy |
| --- | --- |
| TGTTGCACGTGGGTGG | -0.02 kcal/mol |
| CGTGTCACGTGGGGGT | -0.06 kcal/mol |
| TAGTTCACGTGTGCTG | 0.14 kcal/mol |
| TTATTCACGTGCTTAG | 0.22 kcal/mol |
| TGAGACACGTGCAGTG | 0.07 kcal/mol |
| TTAGTCACGTGTAAGC | 0.06 kcal/mol |
| GTGGACACGTGAGGGT | 0.24 kcal/mol |
| TTGATCACGTGGATGG | 0.14 kcal/mol |
| TGGTACACGTGAGGTA | 0.33 kcal/mol |
| TTGTACACGTGGCTAT | -0.07 kcal/mol |
| TCAGGCACGTGTGGCT | 0.02 kcal/mol |
| GGTCACACGTGGTTTG | 0.06 kcal/mol |
| TGTGTCACGTGTGGAG | 0.09 kcal/mol |
| GGAGTCACGTGTCTTT | 0.16 kcal/mol |
| TGAGTCACGTGGAGTG | 0.04 kcal/mol |
| GGGTACACGTGGTCAA | 0.08 kcal/mol |
| GTATACACGTGTGGCG | 0.02 kcal/mol |
| TTTTACACGTGGTATG | 0.07 kcal/mol |
| TAGGTCACGTGAAGGA | 0.18 kcal/mol |

| Sequence | relative binding free energy |
| --- | --- |
| TATCTCACGTGTAGGG | 0.21 kcal/mol |
| ATCTGCACGTGGGCGT | -0.12 kcal/mol |
| TTTTCCACGTGGCTTT | 0.07 kcal/mol |
| GGATTCACGTGGTTCG | 0.32 kcal/mol |
| CGTAGCACGTGACGGG | 0.03 kcal/mol |
| TGGTACACGTGATGAA | 0.16 kcal/mol |
| GCGTGCACGTGGTAGA | -0.03 kcal/mol |
| TGTTGCACGTGCAGGG | -0.07 kcal/mol |
| TTTACCACGTGAGTGG | 0.14 kcal/mol |
| GGAAACACGTGGGGTC | -0.04 kcal/mol |
| AGGTTCACGTGAGGGT | 0.36 kcal/mol |
| AAGGCCACGTGTGTAT | -0.07 kcal/mol |
| ATAATCACGTGTGTTG | 0.12 kcal/mol |
| TTAAGCACGTGGGGAT | -0.09 kcal/mol |
| GCAAGCACGTGGGTTG | -0.24 kcal/mol |
| TTTTTCACGTGAGTGT | 0.31 kcal/mol |
| AGTTTCACGTGCGTTA | 0.17 kcal/mol |
| AGGATCACGTGTTGGG | 0.2 kcal/mol |
| GATTTCACGTGAGTGT | 0.35 kcal/mol |

| Sequence | relative binding free energy |
| --- | --- |
| ATTTGCACGTGTAATT | 0.1 kcal/mol |
| TAGTGCACGTGAGAAT | 0.17 kcal/mol |
| AATAGCACGTGTTCGT | -0.21 kcal/mol |
| AGGCTCACGTGGTTAA | 0.19 kcal/mol |
| AGGTTCACGTGTAGCG | 0.16 kcal/mol |
| GGAGGCACGTGTTTTG | -0.06 kcal/mol |
| TGTGTCACGTGTTAAA | 0.09 kcal/mol |
| CGTGGCACGTGGGAAA | -0.17 kcal/mol |
| CGAAGCACGTGATGGG | 0.02 kcal/mol |
| GGTAGCACGTGACATG | 0.16 kcal/mol |
| GGGTTCACGTGGGTCG | 0.21 kcal/mol |
| TTGGGCACGTGTGAGC | 0.02 kcal/mol |
| TTAGACACGTGCGTTG | -0.03 kcal/mol |
| TAGTTCACGTGGTAAC | 0.24 kcal/mol |
| TAGGGCACGTGGGTAA | -0.23 kcal/mol |
| TGAGTCACGTGAGGAT | 0.46 kcal/mol |
| AGAAGCACGTGGAGGA | -0.11 kcal/mol |
| TTGGTCACGTGTAATA | 0.18 kcal/mol |
| TTTTACACGTGATTGG | 0.21 kcal/mol |
